From the supplement of paper PMC12217912
Some of the results follow. Sequences were assembled here from the parent chain. Values near 0.05 are background.

B1: TEV protease; numbered along this chain (parent)
chain: MGESLFKGPRDYNPISSSICHLTNESDGHTTSLYGIGFGPFIITNKHLFRRNNGTLVVQSLHGVFKVKDTTTLQQHLVDGRDMIIIRMPKDFPPFPQKLKFREPQREERICLVTTNFQTKSMSSMVSDTSCTFPSGDGIFWKHWIQTKDGQCGSPLVSTRDGFIVGIHSASNFTNTNNYFTSVPKNFMELLTNQEAQQWVSGWRLNADSVLWGGHKVFMVKPEEPFQPVKEATQL

Variants of: B1
Assay: raw area under fraction-flipped curve 0-4 h after induction (AUC4h, not background-subtracted), DNA-recorder readout of cleavage of the substrate (dimensionless); higher = more cleavage of the substrate by the protease variant
Settings: temperature: 34 °C; time window: 0-4 h after rhamnose induction
Procedure: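 In vivo DNA recorder in E. coli TOP10(DE3) ΔrhaA at 34 °C. Each TEVp single-site mutant (parent TEVp 0) is paired with a single-site variant of the 7-mer TEVs (canonical ENLYFQ|S). The substrate sits between flexible linkers in a Bxb1-sfGFP-TEVs-SsrA fusion, so cleavage stabilises Bxb1 and speeds flipping of a recombination array, read by NGS. The value is the raw area under the fraction-flipped curve over 0-4 h after rhamnose induction (AUC4h), with ≥20 reads per time point. It is not background-subtracted; inactive controls average about 0.047.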
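Further: Bxb1 expression induced with 0.2% (w/v) L-rhamnose at OD600 near 0.5, cultures sampled hourly, flipped fraction per protease–substrate barcode pair counted by paired-end Illumina sequencing.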

Variant | area with substrate ENLYFQA | area with substrate ENLYFQC | area with substrate ENLYFQF | area with substrate ENLYFQG | area with substrate ENLYFQH | area with substrate ENLYFQI | area with substrate ENLYFQK | area with substrate ENLYFQL | area with substrate ENLYFQM | area with substrate ENLYFQN | area with substrate ENLYFQP | area with substrate ENLYFQQ | area with substrate ENLYFQR | area with substrate ENLYFQS | area with substrate ENLYFQV | area with substrate ENLYFQW | area with substrate ENLYFQY | area with substrate ENLYFQE | area with substrate ENLYFQT | area with substrate ENLYFQD
MGESLFKGPRDYNPISSSICHLTNESDGHTTSLYGIGFGPFIITNKHLFRRNNGTLVVQSLHGVFKVKDTTTLQQHLVDGRDMIIIRMPKDFPPFPQKLKFREPQREERICLVTTNFQTKSMSSMVSDTSCTFPSGDGIFWKVWIQTKDGQCGSPLVSTRDGFIVGIHSASNFTNTNNYFTSVPKNFMELLTNQEAQQWVSGWRLNADSVLWGGHKVFMVKPEEPFQPVKEATQL [H143V] | 0.0671 | 0.0997 | 0.0456 | 0.0761 | 0.0668 | 0.0552 | 0.034 | 0.0597 | 0.0502 | 0.0593 | 0.0612 | 0.0572 | 0.0492 | 0.0738 | 0.0488 | 0.0627 | 0.079 |  |  | 
MGESLFKGPRDYNPISSSICHLTNESDGHTTSLYGIGFGPFIITNKHLFRRNNGTLVVQSLHGVFKVKDTTTLQQHLVDGRDMIIIRMPKDFPPFPQKLKFREPQREERICLVTTNFQTKSMSSMVSDTSCTFPSGDGIFWKHWIQTKDGQCGSPLVSTRDGFIVGIHSASNFTNTNNYFTSVPKNFMELLTNQEAQQWVSGWRLNADQVLWGGHKVFMVKPEEPFQPVKEATQL [S209Q] | 0.13 | 0.13 |  |  | 0.0698 | 0.0649 | 0.0576 | 0.0539 |  | 0.0907 | 0.0566 | 0.0671 | 0.0757 | 0.109 |  | 0.084 |  | 0.0653 |  | 
MGESLFKGPRDYNPISSSICHLTNESDGHTTSLYGIGFGPFIITNKHLFRVNNGTLVVQSLHGVFKVKDTTTLQQHLVDGRDMIIIRMPKDFPPFPQKLKFREPQREERICLVTTNFQTKSMSSMVSDTSCTFPSGDGIFWKHWIQTKDGQCGSPLVSTRDGFIVGIHSASNFTNTNNYFTSVPKNFMELLTNQEAQQWVSGWRLNADSVLWGGHKVFMVKPEEPFQPVKEATQL [R51V] | 0.0998 | 0.112 |  | 0.0818 | 0.086 | 0.0638 | 0.0616 | 0.0612 | 0.0543 | 0.07 |  | 0.0688 | 0.0522 | 0.102 | 0.0717 | 0.0622 |  | 0.0689 | 0.0438 | 
MGESLFKGPRDYNPISSSICHLTNESDGHTTSLYGIGFGPFIITNKHLFRRNNGTLVVQSLHGVFKVKDTTTLQQHLVDGRDMIIIRMRKDFPPFPQKLKFREPQREERICLVTTNFQTKSMSSMVSDTSCTFPSGDGIFWKHWIQTKDGQCGSPLVSTRDGFIVGIHSASNFTNTNNYFTSVPKNFMELLTNQEAQQWVSGWRLNADSVLWGGHKVFMVKPEEPFQPVKEATQL [P89R] | 0.0778 | 0.1 | 0.0677 | 0.0704 |  | 0.0467 | 0.0586 | 0.0661 | 0.0695 | 0.0641 | 0.0545 |  | 0.0294 | 0.0803 | 0.0705 | 0.061 | 0.0782 |  |  | 
MGESLFKGPRDYNPISSSICHLTNESDGHTTSLYGIGFGPFIITNKHLFRRNNGTLVVQSLHGVFKVKDTTTLQQHLVDGRDMIIIRMPKDFPPFPQKLKFREPQREERICLVTTNFQTKSMSSMVSDTSCTFPSGDGIFWKHWIQTKDGQCGSPLVSTRDGFIVGIHSASNFTNTNNYFTSVPKNFMELLTNQEAQQWVSGWRLNADSVLWGGHKVFMVKPEEPFQPNKEATQL [V229N] | 0.0881 | 0.11 |  | 0.104 |  | 0.0588 |  | 0.0563 | 0.079 |  |  | 0.0827 | 0.0591 | 0.107 | 0.0394 | 0.079 |  |  | 0.0691 | 0.0663
MGESLFKGPRDYNPISSSICHLTNESDGHTTSLYGIGFGPFIITNKHLFRRNNGTLVVQSLHGVFKVKDTTTLQQHLVDGRDMIIIRMPKDFPPFPQKLKFREPQREERICLVTTNFQTKSMSSMVSDTSCTFPSGDGIFWKHWIQTKDGQCGSPLVSTRDGFIVGLHSASNFTNTNNYFTSVPKNFMELLTNQEAQQWVSGWRLNADSVLWGGHKVFMVKPEEPFQPVKEATQL [I167L] | 0.094 | 0.177 | 0.0723 | 0.104 | 0.0871 |  | 0.0348 | 0.0417 | 0.0841 | 0.0695 |  | 0.0619 | 0.0541 | 0.109 | 0.0607 | 0.0629 | 0.0757 |  |  | 
MGESLFKGPRDYNPISSSICHLTNESDGHTTSLYGIGFGPFIITNKHLFRRNNGTLVVQSLHGVFKVKDTTTLQQHLVDGRDMIIPRMPKDFPPFPQKLKFREPQREERICLVTTNFQTKSMSSMVSDTSCTFPSGDGIFWKHWIQTKDGQCGSPLVSTRDGFIVGIHSASNFTNTNNYFTSVPKNFMELLTNQEAQQWVSGWRLNADSVLWGGHKVFMVKPEEPFQPVKEATQL [I86P] | 0.042 |  |  | 0.0461 |  | 0.0362 | 0.0402 | 0.0392 |  | 0.0296 |  | 0.0396 |  | 0.038 | 0.0358 | 0.0383 | 0.0338 |  |  | 
MGESLFKGPRDYNPISSSICHLTNESDGHTTSLYGIGFGPFIITNKHLFRRNNGTLVVQSLHGVFKVKDTTTLQQHLVDGRDMIIIRMPKDFPPFPQKLKFREPQREERICLVTTNFQTKSMSSMVSDTSCTFPSGDGIFWKHWIQTKDGQCGSPLVSTRDGFIVGIHSASNFTNTNNYFTSVPKNFMELLTNQEAQQWVSGWRLNADSWLWGGHKVFMVKPEEPFQPVKEATQL [V210W] | 0.0883 | 0.0863 |  | 0.0918 |  | 0.0842 | 0.0524 | 0.0587 |  | 0.0738 | 0.0657 |  | 0.0661 | 0.089 |  |  | 0.0426 |  | 0.0477 | 
